This is an account of results in patent US20170224662A1 (priority 2016, published 2017).

The data set in a line: 1- and 2-week accelerated stability of CPMM (~0.3 mg/mL) in aqueous pH buffer media, HPLC purity. It counts as physicochemical. Here is the method:
The aqueous CPMM pH 1-9 samples described above were diluted as necessary to approximately 0.3 mg/mL and placed on accelerated stability at 25° C./60% relative humidity and 40° C./75% relative humidity conditions for two weeks. Samples were pulled at t=0, 1, and 2 weeks from set-up, and analyzed by HPLC. Samples were diluted to approximately 0.3 mg/mL, which well below the HPLC method nominal concentration, due to concerns of precipitation during the two week stability study. The injection volume was increased to compensate for the lower drug concentration in solution. The change in CPMM purity over the study duration is listed in Table 3 and plotted in FIGS. 3-5.
The pH 1 sample was placed on stability at a non-diluted concentration due to an error. This sample was re-diluted at the one-week time point to match the concentration in the pH 2-9 samples and re-placed on stability. The pH 9 sample results were not included in FIGS. 3-5 due to excessive degradation and for easier visual assessment over the more relevant pH 2-8 range.

Each structure is given as a SMILES string. This continues a long series; more values of the same kind are listed elsewhere.

Take `COC(=O)C1(OC(=O)c2cncn2[C@H](C)c2ccccc2)CC1` [CPMM, 1-(methoxycarbonyl)cyclopropyl-1-[(1R)-1-phenylethyl]-1H-imidazole-5-carboxylate]: the “Change in CPMM % Purity” value is −1.64% (pH 2 (Phosphoric Acid), 25° C./60% RH, t = 1 week); −3.25% (pH 2 (Phosphoric Acid), 25° C./60% RH, t = 2 week); −6.03% (pH 2 (Phosphoric Acid), 40° C./75% RH, t = 1 week); −12.13% (pH 2 (Phosphoric Acid), 40° C./75% RH, t = 2 week); −1.53% (pH 3 (Phosphoric Acid), 25° C./60% RH, t = 1 week); −3.16% (pH 3 (Phosphoric Acid), 25° C./60% RH, t = 2 week). The “Change in CPMM % Purity” value (pH 3 (Phosphoric Acid), 40° C./75% RH, t = 1 week) is −5.36%; the “Change in CPMM % Purity” value (pH 3 (Phosphoric Acid), 40° C./75% RH, t = 2 week) was −10.87%; the “Change in CPMM % Purity” value (pH 4 (Citric Acid), 25° C./60% RH, t = 1 week) is −0.95%; the “Change in CPMM % Purity” value (pH 4 (Citric Acid), 25° C./60% RH, t = 2 week) is −2.00%; the “Change in CPMM % Purity” value (pH 4 (Citric Acid), 40° C./75% RH, t = 1 week) is −3.43%; the “Change in CPMM % Purity” value (pH 4 (Citric Acid), 40° C./75% RH, t = 2 week) is listed as −6.99%. Moreover, the “Change in CPMM % Purity” value is recorded as −2.90% (pH 7 (Phosphoric Acid), 40° C./75% RH, t = 1 week); −5.62% (pH 7 (Phosphoric Acid), 40° C./75% RH, t = 2 week); −1.76% (pH 8 (Phosphoric Acid), 25° C./60% RH, t = 1 week); −3.62% (pH 8 (Phosphoric Acid), 25° C./60% RH, t = 2 week); −11.39% (pH 8 (Phosphoric Acid), 40° C./75% RH, t = 1 week); −22.20% (pH 8 (Phosphoric Acid), 40° C./75% RH, t = 2 week). Moreover, the “Change in CPMM % Purity” value is, setting by setting: (pH 9 (Boric Acid), 25° C./60% RH, t = 1 week) −25.38%; (pH 9 (Boric Acid), 25° C./60% RH, t = 2 week) −44.67%; (pH 9 (Boric Acid), 40° C./75% RH, t = 1 week) −78.47%; (pH 9 (Boric Acid), 40° C./75% RH, t = 2 week) −92.14%.
